Laboratory results as given in patent US11618753B2 (priority 2018, dated 2023).

system: MLKL phosphorylation, HT29-L23 human colorectal adenocarcinoma cells; assay: cells; settings: read-out: pMLKL HCS Cell Assay (IC50, uM)

Question: `CC(C)CC(=O)N1C[C@H](F)[C@H](NC(=O)c2cc(-c3cc(C(F)(F)F)c4c(N)ncnn34)cc(F)c2CF)C1` [Example 625, 5-[4-amino-5-(trifluoromethyl)pyrrolo[2,1-f][1,2,4]triazin-7-yl]-3-fluoro-N-[(3R,4S)-4-fluoro-1-(3-methylbutanoyl)pyrrolidin-3-yl]-2-(fluoromethyl)benzamide] was tested. Which IC50 did it give?
Answer: 0.0018 µM

Question: How did the IC50 turn out when `Nc1ncnn2c(-c3cc(F)c(CF)c(C(=O)N[C@@H]4CN(C(=O)c5ccccc5F)C[C@@H]4F)c3)cc(C(F)(F)F)c12` [Example 626, 5-[4-amino-5-(trifluoromethyl)pyrrolo[2,1-f][1,2,4]triazin-7-yl]-3-fluoro-N-[(3R,4S)-4-fluoro-1-(2-fluorobenzoyl)pyrrolidin-3-yl]-2-(fluoromethyl)benzamide] was run?
Answer: 0.0028 µM

Question: How did the IC50 turn out when `CC(C(=O)N1C[C@H](F)[C@H](NC(=O)c2cc(-c3cc(C(F)(F)F)c4c(N)ncnn34)cc(F)c2CF)C1)C(F)(F)F` (stereo partly drawn) [Example 627, 5-[4-amino-5-(trifluoromethyl)pyrrolo[2,1-f][1,2,4]triazin-7-yl]-3-fluoro-N-[(3R,4S)-4-fluoro-1-(3,3,3-trifluoro-2-methylpropanoyl)pyrrolidin-3-yl]-2-(fluoromethyl)benzamide] was run?
Answer: 0.0036 µM

Question: Which IC50 does the source give for `CCC(O)(C(=O)N1C[C@H](F)[C@H](NC(=O)c2cc(-c3cc(C(F)(F)F)c4c(N)ncnn34)cc(F)c2CF)C1)C(F)(F)F` (stereo partly drawn) [Example 628, 5-[4-amino-5-(trifluoromethyl)pyrrolo[2,1-f][1,2,4]triazin-7-yl]-3-fluoro-N-[(3R,4S)-4-fluoro-1-[2-hydroxy-2-(trifluoromethyl)butanoyl]pyrrolidin-3-yl]-2-(fluoromethyl)benzamide] here?
Answer: 0.0039 µM

Question: How did the IC50 turn out when `CC(O)(CC(=O)N1C[C@H](F)[C@H](NC(=O)c2cc(-c3cc(C(F)(F)F)c4c(N)ncnn34)cc(F)c2Cl)C1)C(F)(F)F` (stereo partly drawn) [Example 629, 5-[4-amino-5-(trifluoromethyl)pyrrolo[2,1-f][1,2,4]triazin-7-yl]-2-chloro-3-fluoro-N-[(3R,4S)-4-fluoro-1-(4,4,4-trifluoro-3-hydroxy-3-methylbutanoyl)pyrrolidin-3-yl]benzamide] was run?
Answer: 0.0055 µM

Question: `CC(C)(F)C(=O)N1C[C@H](F)[C@H](NC(=O)c2cc(-c3cc(C(F)(F)F)c4c(N)ncnn34)cc(F)c2Cl)C1` [Example 630, 5-[4-amino-5-(trifluoromethyl)pyrrolo[2,1-f][1,2,4]triazin-7-yl]-2-chloro-3-fluoro-N-[(3R,4S)-4-fluoro-1-(2-fluoro-2-methylpropanoyl)pyrrolidin-3-yl]benzamide] was tested. Which IC50 did it give?
Answer: 0.016 µM

Question: `Nc1ncnn2c(-c3cc(F)c(Cl)c(C(=O)N[C@@H]4CN(C(=O)C5CC5(F)F)C[C@@H]4F)c3)cc(C(F)(F)F)c12` (stereo partly drawn) [Example 631, 5-[4-amino-5-(trifluoromethyl)pyrrolo[2,1-f][1,2,4]triazin-7-yl]-2-chloro-N-[(3R,4S)-1-(2,2-difluorocyclopropanecarbonyl)-4-fluoropyrrolidin-3-yl]-3-fluorobenzamide] was tested. Which IC50 did it give?
Answer: 0.0066 µM

Question: With `Nc1ncnn2c(-c3cc(F)c(Cl)c(C(=O)N[C@@H]4CN(C(=O)CC(C(F)(F)F)C(F)(F)F)C[C@@H]4F)c3)cc(C(F)(F)F)c12` [Example 632, 5-[4-amino-5-(trifluoromethyl)pyrrolo[2,1-f][1,2,4]triazin-7-yl]-2-chloro-3-fluoro-N-[(3R,4S)-4-fluoro-1-[4,4,4-trifluoro-3-(trifluoromethyl)butanoyl]pyrrolidin-3-yl]benzamide] as the compound, how does the IC50 read?
Answer: 0.0022 µM

Question: `Nc1ncnn2c(-c3cc(F)c(Cl)c(C(=O)N[C@@H]4CN(C(=O)C5CC(F)(F)C5)C[C@@H]4F)c3)cc(C(F)(F)F)c12` [Example 635, 5-[4-amino-5-(trifluoromethyl)pyrrolo[2,1-f][1,2,4]triazin-7-yl]-2-chloro-N-[(3R,4S)-1-(3,3-difluorocyclobutanecarbonyl)-4-fluoropyrrolidin-3-yl]-3-fluorobenzamide] was tested. Which IC50 did it give?
Answer: 0.0073 µM

Question: `Nc1ncnn2c(-c3cc(F)c(Cl)c(C(=O)N[C@@H]4CN(C(=O)C5(F)CC5)C[C@@H]4F)c3)cc(C(F)(F)F)c12` [Example 636, 5-[4-amino-5-(trifluoromethyl)pyrrolo[2,1-f][1,2,4]triazin-7-yl]-2-chloro-3-fluoro-N-[(3R,4S)-4-fluoro-1-(1-fluorocyclopropanecarbonyl)pyrrolidin-3-yl]benzamide] was tested. Which IC50 did it give?
Answer: 0.013 µM

Question: For `Nc1ncnn2c(-c3cc(F)c(Cl)c(C(=O)N[C@@H]4CN(C(=O)CC(O)(C(F)(F)F)C(F)(F)F)C[C@@H]4F)c3)cc(C(F)(F)F)c12` [Example 637, 5-[4-amino-5-(trifluoromethyl)pyrrolo[2,1-f][1,2,4]triazin-7-yl]-2-chloro-3-fluoro-N-[(3R,4S)-4-fluoro-1-[4,4,4-trifluoro-3-hydroxy-3-(trifluoromethyl)butanoyl]pyrrolidin-3-yl]benzamide], which IC50 is on record?
Answer: 0.0026 µM

Question: How did the IC50 turn out when `CC(C)(O)C(=O)N1C[C@H](F)[C@H](NC(=O)c2cc(-c3cc(C(F)(F)F)c4c(N)ncnn34)cc(F)c2Cl)C1` [Example 639] was run?
Answer: 0.068 µM

Question: Which IC50 does the source give for `CC(C)CC(=O)N1C[C@H](F)[C@H](NC(=O)c2cc(-c3cc(C(F)(F)F)c4c(N)ncnn34)cc(F)c2Cl)C1` [Example 641, 5-[4-amino-5-(trifluoromethyl)pyrrolo[2,1-f][1,2,4]triazin-7-yl]-2-chloro-3-fluoro-N-[(3R,4S)-4-fluoro-1-(3-methylbutanoyl)pyrrolidin-3-yl]benzamide] here?
Answer: 0.0074 µM

Question: How did the IC50 turn out when `Nc1ncnn2c(-c3cc(F)c(Cl)c(C(=O)N[C@@H]4CN(C(=O)c5ccccc5F)C[C@@H]4F)c3)cc(C(F)(F)F)c12` [Example 642, 5-[4-amino-5-(trifluoromethyl)pyrrolo[2,1-f][1,2,4]triazin-7-yl]-2-chloro-3-fluoro-N-[(3R,4S)-4-fluoro-1-(2-fluorobenzoyl)pyrrolidin-3-yl]benzamide] was run?
Answer: 0.0031 µM

Question: Which IC50 does the source give for `Nc1ncnn2c(-c3cc(F)c(Cl)c(C(=O)N[C@@H]4CN(C(=O)C5CCC(F)(F)CC5)C[C@@H]4F)c3)cc(C(F)(F)F)c12` [Example 643, 5-[4-amino-5-(trifluoromethyl)pyrrolo[2,1-f][1,2,4]triazin-7-yl]-2-chloro-N-[(3R,4S)-1-(4,4-difluorocyclohexanecarbonyl)-4-fluoropyrrolidin-3-yl]-3-fluorobenzamide] here?
Answer: 0.032 µM

Question: How did the IC50 turn out when `CCc1c(F)cc(-c2cc(C(F)(F)F)c3c(N)ncnn23)cc1C(=O)N[C@@H]1CN(C(=O)c2ccccc2F)C[C@@H]1F` [Example 645, 5-[4-amino-5-(trifluoromethyl)pyrrolo[2,1-f][1,2,4]triazin-7-yl]-2-ethyl-3-fluoro-N-[(3R,4S)-4-fluoro-1-(2-fluorobenzoyl)pyrrolidin-3-yl]benzamide] was run?
Answer: 0.024 µM

Question: Which IC50 does the source give for `CCc1c(F)cc(-c2cc(C(F)(F)F)c3c(N)ncnn23)cc1C(=O)N[C@@H]1CN(C(=O)CC(C)C)C[C@@H]1F` [Example 646, 5-[4-amino-5-(trifluoromethyl)pyrrolo[2,1-f][1,2,4]triazin-7-yl]-2-ethyl-3-fluoro-N-[(3R,4S)-4-fluoro-1-(3-methylbutanoyl)pyrrolidin-3-yl]benzamide] here?
Answer: 0.0042 µM

Question: How did the IC50 turn out when `CCc1c(F)cc(-c2cc(C(F)(F)F)c3c(N)ncnn23)cc1C(=O)N[C@@H]1CN(C(=O)C(C)(C)O)C[C@@H]1F` [Example 647, 5-[4-amino-5-(trifluoromethyl)pyrrolo[2,1-f][1,2,4]triazin-7-yl]-2-ethyl-3-fluoro-N-[(3R,4S)-4-fluoro-1-(2-hydroxy-2-methylpropanoyl)pyrrolidin-3-yl]benzamide] was run?
Answer: 0.025 µM
